Measured values reported in PMC10184828.
No constants are given. Whether binding was seen depends on the method and setting. Binding seen in cells or lysates may run through a third protein. Some results given as binding are weak or reduced against the parent protein; the word gives no strength. Tags and fused reporters may be left off the sequences shown.

Protein sequences, listed by entry. Tags and fused reporters are not part of them.
UniProt P48415: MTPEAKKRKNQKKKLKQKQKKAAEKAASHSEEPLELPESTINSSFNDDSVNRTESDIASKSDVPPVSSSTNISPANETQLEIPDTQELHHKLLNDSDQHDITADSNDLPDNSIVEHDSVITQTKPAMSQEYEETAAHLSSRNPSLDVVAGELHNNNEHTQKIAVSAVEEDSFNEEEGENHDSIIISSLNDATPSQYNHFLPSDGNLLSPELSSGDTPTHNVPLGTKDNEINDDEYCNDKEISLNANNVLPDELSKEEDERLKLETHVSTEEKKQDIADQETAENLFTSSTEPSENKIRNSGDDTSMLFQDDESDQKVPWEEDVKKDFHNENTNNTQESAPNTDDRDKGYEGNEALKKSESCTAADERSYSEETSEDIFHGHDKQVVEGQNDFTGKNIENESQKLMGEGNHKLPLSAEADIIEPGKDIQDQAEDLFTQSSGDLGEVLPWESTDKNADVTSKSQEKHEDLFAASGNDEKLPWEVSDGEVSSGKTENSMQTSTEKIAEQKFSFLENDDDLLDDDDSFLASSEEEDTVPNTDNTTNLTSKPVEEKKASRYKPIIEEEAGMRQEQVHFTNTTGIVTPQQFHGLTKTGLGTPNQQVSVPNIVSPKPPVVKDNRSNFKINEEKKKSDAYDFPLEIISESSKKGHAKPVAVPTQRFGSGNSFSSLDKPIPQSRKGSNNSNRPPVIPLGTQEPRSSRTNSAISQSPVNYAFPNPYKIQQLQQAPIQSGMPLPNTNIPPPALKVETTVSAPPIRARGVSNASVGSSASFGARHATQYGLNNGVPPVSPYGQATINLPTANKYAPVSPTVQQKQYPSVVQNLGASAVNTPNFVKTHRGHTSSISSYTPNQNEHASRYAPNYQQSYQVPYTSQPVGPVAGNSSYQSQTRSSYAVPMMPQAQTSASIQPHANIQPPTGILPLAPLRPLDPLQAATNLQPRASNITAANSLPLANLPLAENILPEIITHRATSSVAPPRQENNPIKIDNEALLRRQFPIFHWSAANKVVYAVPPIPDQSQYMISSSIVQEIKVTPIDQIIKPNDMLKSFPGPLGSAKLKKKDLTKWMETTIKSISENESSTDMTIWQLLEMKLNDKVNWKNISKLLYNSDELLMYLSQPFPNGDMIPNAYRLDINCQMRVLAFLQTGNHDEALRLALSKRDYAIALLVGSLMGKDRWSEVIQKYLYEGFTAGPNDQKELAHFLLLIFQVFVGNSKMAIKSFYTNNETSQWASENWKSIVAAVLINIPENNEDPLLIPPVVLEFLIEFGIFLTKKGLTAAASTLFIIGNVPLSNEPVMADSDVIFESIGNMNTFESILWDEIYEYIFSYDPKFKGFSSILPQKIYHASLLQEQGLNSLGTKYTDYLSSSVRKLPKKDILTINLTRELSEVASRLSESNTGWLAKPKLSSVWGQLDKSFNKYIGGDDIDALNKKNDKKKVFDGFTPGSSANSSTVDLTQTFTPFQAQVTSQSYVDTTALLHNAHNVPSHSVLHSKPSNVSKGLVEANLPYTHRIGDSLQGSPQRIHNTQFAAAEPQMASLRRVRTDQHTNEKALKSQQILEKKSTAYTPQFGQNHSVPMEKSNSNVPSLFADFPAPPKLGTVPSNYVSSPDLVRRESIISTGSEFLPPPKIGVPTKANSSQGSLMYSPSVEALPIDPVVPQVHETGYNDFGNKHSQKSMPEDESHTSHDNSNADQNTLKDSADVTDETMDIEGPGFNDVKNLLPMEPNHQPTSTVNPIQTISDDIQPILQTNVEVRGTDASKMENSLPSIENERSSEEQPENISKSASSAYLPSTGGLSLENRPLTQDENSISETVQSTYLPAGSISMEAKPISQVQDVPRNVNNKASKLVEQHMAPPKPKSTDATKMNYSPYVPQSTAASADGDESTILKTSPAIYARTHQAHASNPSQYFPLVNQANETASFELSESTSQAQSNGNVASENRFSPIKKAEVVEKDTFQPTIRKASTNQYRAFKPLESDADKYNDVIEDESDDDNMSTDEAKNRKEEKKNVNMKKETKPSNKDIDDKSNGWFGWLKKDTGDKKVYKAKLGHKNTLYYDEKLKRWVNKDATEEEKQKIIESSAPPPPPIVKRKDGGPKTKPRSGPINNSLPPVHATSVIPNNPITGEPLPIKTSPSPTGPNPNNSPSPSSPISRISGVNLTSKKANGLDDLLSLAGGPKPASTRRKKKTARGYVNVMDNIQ

Key:
Assay in all cases: co-IP; octylglucoside-solubilized extracts of sed4Δ sec16Δ cells; immunoprecipitation with anti-V5 antibody, blot with anti-HA and anti-V5; 25 mM HEPES pH 8.0, 50 mM NaCl, 1 mM EDTA, 5% glycerol, 4°C
[1] = biological target: T1, Sed4^ΔHDEL–V5 (S. cerevisiae) (UniProt P25365)
T1 sequence: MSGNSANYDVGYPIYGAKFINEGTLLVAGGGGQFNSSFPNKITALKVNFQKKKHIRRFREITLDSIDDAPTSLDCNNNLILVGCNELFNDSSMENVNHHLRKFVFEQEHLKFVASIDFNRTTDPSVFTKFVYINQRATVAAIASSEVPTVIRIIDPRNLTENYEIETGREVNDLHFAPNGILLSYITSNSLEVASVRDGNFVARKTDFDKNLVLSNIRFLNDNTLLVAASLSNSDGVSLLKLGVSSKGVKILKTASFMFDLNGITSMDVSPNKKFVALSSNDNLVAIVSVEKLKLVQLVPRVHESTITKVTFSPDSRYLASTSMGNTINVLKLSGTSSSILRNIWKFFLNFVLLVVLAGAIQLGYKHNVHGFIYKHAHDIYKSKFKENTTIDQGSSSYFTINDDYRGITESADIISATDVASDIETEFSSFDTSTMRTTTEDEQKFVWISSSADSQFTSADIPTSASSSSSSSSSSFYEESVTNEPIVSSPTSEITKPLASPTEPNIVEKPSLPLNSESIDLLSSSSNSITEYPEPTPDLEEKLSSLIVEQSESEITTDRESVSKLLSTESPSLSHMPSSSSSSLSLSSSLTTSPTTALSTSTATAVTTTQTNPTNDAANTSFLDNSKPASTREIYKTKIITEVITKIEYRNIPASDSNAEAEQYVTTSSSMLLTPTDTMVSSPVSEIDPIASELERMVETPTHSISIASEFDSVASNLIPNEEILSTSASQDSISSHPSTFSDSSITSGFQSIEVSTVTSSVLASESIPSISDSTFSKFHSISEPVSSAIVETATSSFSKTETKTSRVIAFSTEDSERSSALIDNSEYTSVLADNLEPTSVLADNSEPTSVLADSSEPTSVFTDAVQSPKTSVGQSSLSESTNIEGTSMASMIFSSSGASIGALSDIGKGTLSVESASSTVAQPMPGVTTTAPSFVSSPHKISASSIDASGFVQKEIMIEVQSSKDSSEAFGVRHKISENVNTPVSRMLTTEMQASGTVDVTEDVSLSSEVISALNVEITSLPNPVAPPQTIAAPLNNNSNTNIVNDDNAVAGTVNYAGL

[2] = biological target: T2, Sed4–V5^HDEL (S. cerevisiae) (UniProt P25365)
T2 sequence: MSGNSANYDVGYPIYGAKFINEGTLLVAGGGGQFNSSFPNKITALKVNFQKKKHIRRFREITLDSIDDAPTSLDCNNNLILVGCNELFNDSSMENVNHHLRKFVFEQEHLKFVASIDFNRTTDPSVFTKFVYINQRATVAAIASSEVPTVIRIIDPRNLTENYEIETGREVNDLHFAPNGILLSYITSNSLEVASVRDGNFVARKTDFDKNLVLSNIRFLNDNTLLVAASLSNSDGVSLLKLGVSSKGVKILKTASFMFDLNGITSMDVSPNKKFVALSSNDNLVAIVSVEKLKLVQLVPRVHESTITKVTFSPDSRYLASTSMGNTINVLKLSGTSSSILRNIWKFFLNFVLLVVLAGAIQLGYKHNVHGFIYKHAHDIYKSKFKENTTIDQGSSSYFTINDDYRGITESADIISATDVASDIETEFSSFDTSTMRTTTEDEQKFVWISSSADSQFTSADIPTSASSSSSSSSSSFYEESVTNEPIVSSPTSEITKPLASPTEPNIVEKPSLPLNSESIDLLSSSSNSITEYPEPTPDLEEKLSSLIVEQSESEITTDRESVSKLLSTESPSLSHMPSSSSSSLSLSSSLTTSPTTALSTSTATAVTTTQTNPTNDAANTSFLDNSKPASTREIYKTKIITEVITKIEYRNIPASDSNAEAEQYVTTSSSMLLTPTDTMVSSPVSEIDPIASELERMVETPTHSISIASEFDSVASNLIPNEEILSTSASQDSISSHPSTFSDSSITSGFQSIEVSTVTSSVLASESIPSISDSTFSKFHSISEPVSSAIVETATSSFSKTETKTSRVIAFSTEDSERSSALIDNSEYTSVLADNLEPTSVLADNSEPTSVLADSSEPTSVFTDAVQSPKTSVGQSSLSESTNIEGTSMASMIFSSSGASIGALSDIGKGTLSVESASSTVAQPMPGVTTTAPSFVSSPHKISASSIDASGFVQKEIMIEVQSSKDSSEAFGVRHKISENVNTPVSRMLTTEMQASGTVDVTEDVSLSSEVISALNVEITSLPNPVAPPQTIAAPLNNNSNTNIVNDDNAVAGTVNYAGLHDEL

Sed4–V5 (S. cerevisiae) = biological target: T3, Sed4–V5 (S. cerevisiae) (UniProt P25365)
T3 sequence: T2 sequence

Measured: binding

Sec16–HA (from UniProt P48415 1-2195)
binds: all assays above
